One test deals with HSkMC. Nature of the test: cytotoxicity call (relative viability < 0.9). Particulars: 10 µM.
The next test has as its system HepG2. The experiment in a line: cytotoxicity call (relative viability < 0.9). The following applies: 10 µM.
The next test concerns S. aureus RN4220. Nature of the test: growth inhibition call (relative growth <= 0.2). The following applies: 50 µM.

Some of the results follow.

With `Cc1ccc(S(=O)(=O)N(C)C[C@H]2Oc3ccc(NS(=O)(=O)c4c(C)noc4C)cc3CC(=O)N([C@@H](C)CO)C[C@@H]2C)cc1`, the cytotoxicity call in the test on HSkMC and in the test with HepG2 was “inactive” throughout. The growth inhibition call in the test with S. aureus RN4220 is “inactive”.

Take `C[C@H](CO)N1C[C@H](C)[C@@H](CN(C)C(=O)Nc2ccc(F)cc2)Oc2ccc(NC(=O)Nc3cccc4ccccc34)cc2C1=O`: the cytotoxicity call in the test on HSkMC and in the test on HepG2 was “inactive” each time. Also, the growth inhibition call in the test on S. aureus RN4220 was “inactive”.

As for `C[C@@H]1CCCCO[C@@H](CN(C)C(=O)NC2CCCCC2)[C@H](C)CN([C@H](C)CO)C(=O)c2cc(NS(=O)(=O)c3ccc(F)cc3)ccc2O1`, the cytotoxicity call with HSkMC and in the test with HepG2 was “inactive” each time. Further, in the test with S. aureus RN4220, the growth inhibition call was “inactive”.

Take `COCC#Cc1ccc2c(c1)O[C@@H](CN(C)C(=O)c1ccccc1)[C@@H](C)CN([C@H](C)CO)S2(=O)=O`: the cytotoxicity call in the test with HSkMC and in the test with HepG2 was “inactive” each time. In addition, the growth inhibition call in the test on S. aureus RN4220 is “inactive”.

In the case of `C[C@H](CO)N1C[C@H](C)[C@H](CN(C)C(=O)C2CCCCC2)Oc2cc(-c3cncnc3)ccc2S1(=O)=O`, the cytotoxicity call in the test on HSkMC and with HepG2 was “inactive” throughout. Further, in the test with S. aureus RN4220, the growth inhibition call was “inactive”.

As for `C[C@@H]1CN([C@@H](C)CO)C(=O)c2cccc(NS(=O)(=O)c3cn(C)cn3)c2O[C@H]1CN(C)Cc1ccc2c(c1)OCO2`, the cytotoxicity call with HSkMC and in the test on HepG2 was “inactive” each time. Also, in the test with S. aureus RN4220, the growth inhibition call was “inactive”.

Take `C[C@@H]1CN([C@@H](C)CO)C(=O)c2cc(NC(=O)Nc3ccc(F)cc3)ccc2O[C@H]1CN(C)C(=O)Nc1cccc2ccccc12`: the cytotoxicity call in the test with HSkMC and in the test on HepG2 was “inactive” in each case. Further, the growth inhibition call with S. aureus RN4220 was “inactive”.

Consider `C[C@@H]1CCCCO[C@H](CN(C)C(=O)NC2CCCCC2)[C@@H](C)CN([C@H](C)CO)C(=O)c2cc(NC(=O)CCC(F)(F)F)ccc2O1`, for which the cytotoxicity call in the test with HSkMC and in the test with HepG2 was “inactive” in each case. Further, the growth inhibition call with S. aureus RN4220 is “inactive”.

Turning to `C[C@@H]1CN([C@H](C)CO)C(=O)Cc2cc(NC(=O)Nc3cccc4ccccc34)ccc2O[C@@H]1CN(C)CC1CCCCC1`, the cytotoxicity call with HSkMC was “inactive”. Also, the cytotoxicity call in the test with HepG2 is “active”. In the test with S. aureus RN4220, the growth inhibition call was “inactive”.

For the compound `CC(C)CCCC(C)C1CCC2C3CC=C4CC(O)CCC4(C)C3CCC12C` (configuration not stated), the cytotoxicity call in the test with HSkMC and in the test with HepG2 was “inactive” in each case. For the same compound, the growth inhibition call with S. aureus RN4220 is “inactive”.

As for `COc1ccc(NC(=O)Nc2cccc3c2O[C@H](CN(C)C(=O)Nc2cccc4ccccc24)[C@@H](C)CN([C@H](C)CO)C3=O)cc1`, the cytotoxicity call in the test on HSkMC and in the test with HepG2 was “inactive” in each case. For the same compound, the growth inhibition call in the test with S. aureus RN4220 is “inactive”.

For the compound `C[C@H](CO)N1C[C@H](C)[C@@H](CN(C)S(=O)(=O)c2ccccc2)Oc2c(NC(=O)c3cnccn3)cccc2C1=O`, the cytotoxicity call with HSkMC and in the test on HepG2 was “inactive” in each case. In the test with S. aureus RN4220, the growth inhibition call is “inactive”.

In the case of `Cc1ccc(S(=O)(=O)Nc2ccc3c(c2)C(=O)N([C@@H](C)CO)C[C@@H](C)[C@H](CN(C)S(C)(=O)=O)O3)cc1`, the cytotoxicity call in the test on HSkMC and with HepG2 was “inactive” in each case. Besides, the growth inhibition call with S. aureus RN4220 was “inactive”.

Consider `C[C@@H]1CN([C@H](C)CO)C(=O)c2cc(NC(=O)C3CCCCC3)ccc2O[C@H]1CN(C)Cc1ccc(Oc2ccccc2)cc1`, for which the cytotoxicity call in the test with HSkMC and in the test with HepG2 was “inactive” each time. In addition, the growth inhibition call in the test with S. aureus RN4220 is “inactive”.

As for `Cc1cc(C2(c3cc(C)c(N)c(C)c3)CCCCC2)cc(C)c1N`, the cytotoxicity call in the test with HSkMC was “inactive”. Also, the cytotoxicity call in the test on HepG2 was “active”. Further, the growth inhibition call in the test with S. aureus RN4220 was “inactive”.

Consider `C[C@@H]1CN([C@H](C)CO)C(=O)Cc2cc(NC(=O)C3CC3)ccc2O[C@H]1CN(C)S(=O)(=O)c1cccs1`, for which the cytotoxicity call with HSkMC and in the test on HepG2 was “inactive” each time. The growth inhibition call with S. aureus RN4220 was “inactive”.

In the case of `COc1ccc(S(=O)(=O)N(C)C[C@H]2OCCCC[C@H](C)Oc3ccc(NC(=O)CCC(F)(F)F)cc3C(=O)N([C@H](C)CO)C[C@@H]2C)cc1`, the cytotoxicity call in the test with HSkMC and with HepG2 was “inactive” in each case. Also, the growth inhibition call in the test on S. aureus RN4220 was “inactive”.

Regarding `O=C(C[C@@H]1CC=CC[C@H](NC(=O)OCC2c3ccccc3-c3ccccc32)C(=O)O[C@H](c2ccccc2)CNC1=O)N[C@H](CO)Cc1ccccc1`, the cytotoxicity call in the test with HSkMC was “active”. Also, the cytotoxicity call in the test with HepG2 is “inactive”. Besides, in the test with S. aureus RN4220, the growth inhibition call is “inactive”.

Take `CCC1OC(=O)CC(O)C(C)C(OC2OC(C)C(OC3CC(C)(O)C(O)C(C)O3)C(N(C)C)C2O)C(CC=O)CC(C)C(=O)C=CC(C)=CC1COC1OC(C)C(O)C(OC)C1OC.O=C(O)C(O)C(O)C(=O)O` (configuration not stated): the cytotoxicity call with HSkMC and in the test on HepG2 was “inactive” each time. The growth inhibition call in the test with S. aureus RN4220 is “active”.

`Cc1ccc(S(=O)(=O)Nc2cccc3c2O[C@@H](CN(C)S(=O)(=O)c2ccc(F)cc2)[C@H](C)CN([C@H](C)CO)C3=O)cc1`: the cytotoxicity call in the test on HSkMC and in the test with HepG2 was “inactive” throughout. Further, the growth inhibition call in the test with S. aureus RN4220 was “inactive”.

Regarding `COc1cc(CC=Cc2ccccc2)c(OC)cc1O`, the cytotoxicity call in the test with HSkMC and in the test with HepG2 was “inactive” each time. Moreover, the growth inhibition call in the test with S. aureus RN4220 was “inactive”.

On to `C[C@@H]1CCCCO[C@@H](CN(C)C(=O)Nc2ccc(F)cc2)[C@H](C)CN([C@@H](C)CO)C(=O)c2cc(NC(=O)CCCN(C)C)ccc2O1`, for which the cytotoxicity call in the test on HSkMC (human skeletal muscle cells) and in the test on HepG2 was “inactive” in each case. In addition, the growth inhibition call with S. aureus RN4220 was “inactive”.

For the compound `COc1ccc(C2CC(=O)c3c(O)cc(O)cc3O2)cc1O` (configuration not stated), the cytotoxicity call with HSkMC and in the test with HepG2 was “inactive” in each case. Moreover, in the test on S. aureus RN4220, the growth inhibition call is “inactive”.

Regarding `C[C@H]1CN([C@@H](C)CO)C(=O)CCCn2cc(nn2)CO[C@@H]1CN(C)C(=O)Nc1cccc(C(F)(F)F)c1`, the cytotoxicity call with HSkMC and with HepG2 was “inactive” in each case. In the test on S. aureus RN4220, the growth inhibition call was “inactive”.
